# Source: paper PMC4336329 (PLoS ONE, 2015)
# In all, about 310,000 compounds went through this assay and about 14,000 (4.5%) showed an effect of 50% or more. The effect is printed as a negative number. This is one part of the list.
# Target: human ether-à-go-go-related gene (hERG) potassium channel (human, UniProt Q12809)
# Assay: primary screen, population patch clamp on CHO cells stably expressing hERG
# 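Note: peak tail current of the secondary pulse compared with the same well before compound.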
# human ether-à-go-go-related gene (hERG) potassium channel, sequence (Q12809 whole entry, looked up): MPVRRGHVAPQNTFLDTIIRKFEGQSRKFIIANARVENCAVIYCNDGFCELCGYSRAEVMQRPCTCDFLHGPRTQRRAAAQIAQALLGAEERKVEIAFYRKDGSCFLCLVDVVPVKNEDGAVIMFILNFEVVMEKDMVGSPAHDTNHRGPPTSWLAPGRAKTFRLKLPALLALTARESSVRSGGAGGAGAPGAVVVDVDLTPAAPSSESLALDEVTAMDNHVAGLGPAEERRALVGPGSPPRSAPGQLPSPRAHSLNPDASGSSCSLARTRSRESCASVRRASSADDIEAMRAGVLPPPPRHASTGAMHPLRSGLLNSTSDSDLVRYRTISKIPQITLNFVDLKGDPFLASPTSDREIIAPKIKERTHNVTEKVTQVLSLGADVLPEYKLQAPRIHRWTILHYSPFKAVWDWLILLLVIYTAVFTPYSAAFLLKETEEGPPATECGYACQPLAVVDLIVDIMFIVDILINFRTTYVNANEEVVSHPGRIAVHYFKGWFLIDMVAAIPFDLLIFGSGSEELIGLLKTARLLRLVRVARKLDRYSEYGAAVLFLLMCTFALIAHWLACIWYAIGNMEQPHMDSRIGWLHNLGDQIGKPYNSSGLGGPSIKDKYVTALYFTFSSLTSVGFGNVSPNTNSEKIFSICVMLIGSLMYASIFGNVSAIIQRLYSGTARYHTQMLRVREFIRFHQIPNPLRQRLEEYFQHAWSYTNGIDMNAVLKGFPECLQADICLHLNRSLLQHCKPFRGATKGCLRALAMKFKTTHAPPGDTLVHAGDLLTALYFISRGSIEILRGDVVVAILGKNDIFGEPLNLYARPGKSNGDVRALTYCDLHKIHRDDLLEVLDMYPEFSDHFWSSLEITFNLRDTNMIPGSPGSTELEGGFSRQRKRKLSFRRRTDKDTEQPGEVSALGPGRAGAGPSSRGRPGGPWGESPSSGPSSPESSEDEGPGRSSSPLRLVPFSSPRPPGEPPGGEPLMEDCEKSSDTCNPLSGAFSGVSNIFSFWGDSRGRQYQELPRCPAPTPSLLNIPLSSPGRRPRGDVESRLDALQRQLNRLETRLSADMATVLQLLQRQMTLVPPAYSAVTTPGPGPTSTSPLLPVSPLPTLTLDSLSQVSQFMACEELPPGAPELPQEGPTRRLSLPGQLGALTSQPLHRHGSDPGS
row,SMILES,"hERG current change (%, negative = inhibition) at 10uM [%]"
1,O=C(O)c1ccccc1-c1nc2ccccc2c(=O)[nH]1,8.69
2,Cc1ccc(CNC(=O)CCCN2C(=S)NC(C)(C)CC2C)cc1 (stereo not drawn),-2.55
3,C=CCSc1nnc2c(n1)OC(c1ccco1)Nc1ccccc1-2 (stereo not drawn),-7.61
4,Cc1cc(C)cc(NC(=S)N2CCN(c3ccc(F)cc3)CC2)c1,-8.95
5,COc1cc(CN2CCC(N3CCC(C(=O)N4CCCC4)CC3)CC2)cc2c1OCO2,-17.6
6,Cc1c(C)n(C(=O)CSc2nccn2C)c2ccccc12,-9.32
7,Cc1ccc(NC(=O)COC(=O)CN2C(=O)NC3(CCCC3)C2=O)cc1F,14.1
8,CC(C)(C)NC(=O)Cn1nnc(-c2ccccc2NC(=O)c2ccco2)n1,3.01
9,COc1cc(OC)cc(C(=O)NCCCN2CCOCC2)c1,5.94
10,COc1ccc(NC(=O)/C(C#N)=C/C=C/c2ccco2)cc1,7.02
11,COc1cc(NC(=O)c2cccs2)c(C(=O)OCC(=O)c2cc(C)n(-c3ccc(F)cc3)c2C)cc1OC,11.1
12,c1ccc(-n2c(SCc3nc(-c4cccs4)no3)nnc2-c2ccco2)cc1,-42.6
13,COc1ccccc1OCCNC(=O)C(CCSC)NS(=O)(=O)c1ccccc1F (stereo not drawn),-9.96
14,O=C(Nc1ccc(N2CCCC2)c(Cl)c1)c1cccs1,24.8
15,COCCNC(=O)C(c1ccccc1C)N(CCOC)C(=O)Cn1nnc2ccccc21 (stereo not drawn),-3.04
16,Cc1ccc(-c2nc(N=Nc3ccc(O)cc3)n[nH]2)cc1,5.69
17,CCC(=O)N1CCN(c2nc(C)nc3sc(C)c(C)c23)CC1,-62
18,COc1ccc2oc(=O)c(C(=O)OCC(=O)c3ccc([N+](=O)[O-])cc3)cc2c1,15.6
19,COc1ccc(CN2C3CCC2CC(NC(=O)c2cccc(F)c2)C3)cc1 (stereo not drawn),-75.2
20,COc1cc(C(=O)NCC2CCCN2S(=O)(=O)c2cccs2)cc(OC)c1OC (stereo not drawn),-7.26
21,O=C(Nc1ccc2c(c1)C(=O)OC2)c1ccccc1Cl,14.9
22,CNC(=S)NCCc1c[nH]c2ccc(OC)cc12,12.9
23,O=C(NCc1cccnc1)Nc1ccc(Br)cc1,-3.66

row,SMILES,"hERG current change (%, negative = inhibition) at 10uM [%]"
1,CC1CCCC(=C\c2ccccc2)/C1=N/O (stereo not drawn),-0.41
2,O=c1c2c3c(sc2n2cnnc2n1-c1ccccc1)N(Cc1ccccc1)CCC3,-10.3
3,CSC1=NCCN1C(=O)c1ccco1,21.4
4,COc1ccc(NC(=S)NC(=O)c2ccccc2Cl)cc1,-24.4
5,O=C(Nc1cccnc1)c1ccccc1F,8.5
6,Cc1c(C(=O)N(Cc2ccccc2)C(C)C)cnn1-c1ccccc1,-8.4
7,CCOC(=O)c1c(NC(=O)CSC2=NN3CCCC(=O)N=C3S2)sc2c1CCCCC2,2.29
8,COc1ccc(S(=O)(=O)NCC2CCCN(C(=O)c3ccccc3)C2)cc1 (stereo not drawn),8.3
9,Cc1noc(C)c1COc1ccc(C(=O)Nc2ccccn2)cc1,8.06
10,COc1ccc(CNC(=O)Cc2cccs2)cc1OC,12.4
11,Cc1cc(C(F)F)n2ncc(C(=O)N3CCCCC3)c2n1,8.66
12,CN1C(=O)C2(C(C#N)=C(N)Oc3n[nH]c(-c4ccc(Cl)cc4)c32)c2ccccc21 (stereo not drawn),16.2
13,COc1ccc(C(=O)COC(=O)c2sc(C)nc2C)cc1OC,7.09
14,COc1ccccc1/C=C/C(=O)Nc1ccc2c(c1)OCCO2,-0.461
15,CCn1c(CS(=O)Cc2ccc(Cl)cc2Cl)nnc1SCc1c(Cl)cccc1Cl (stereo not drawn),-6.78
16,CN(C)/C=N/C(=S)Nc1ccc(Cl)cc1Cl,2.48
17,CN(C)c1ccc(NC(=O)C[n+]2ccccc2)cc1.[Cl-],18.5
18,CCOC(=O)N/N=C/c1cc(OC)c(O)c(OC)c1,54.3
19,CCOC(=O)c1cc2sccc2n1CC(=O)Nc1ccc(OC)c(OC)c1,-8.91
20,Cc1c(C(=O)NNc2cc(=O)n(C)c(=O)n2C)cccc1[N+](=O)[O-],23.6
21,Cc1ccc(S(=O)(=O)NCC(c2ccccc2)N2CCCCC2)cc1 (stereo not drawn),1.79
22,CCN(CC)c1ccc(C(=O)OCC(=O)Nc2cc(C)on2)cc1,9.35
23,Cc1ccccc1CN1CCC(n2nccc2NC(=O)c2cccnc2)CC1,-14.6

row,SMILES,"hERG current change (%, negative = inhibition) at 10uM [%]"
1,Cn1cc(C(=O)NCc2ccc(F)cc2)c(=O)c2cc(S(=O)(=O)N3CCCCC3)ccc21,-11.9
2,CCCc1c(O)nc(SC2CC(=O)N(c3cc(OC)ccc3OC)C2=O)[nH]c1=O (stereo not drawn),8.79
3,Cc1sc(NC(=O)C2CCCC2)c(C#N)c1C,15.1
4,COCCCN(C(=S)NC(=O)C12CC3CC(CC(C3)C1)C2)c1c(N)n(Cc2ccccc2)c(=O)[nH]c1=O,15.3
5,COc1c(C)cc(C(=O)C2CCCN(C(=O)Cn3nc(C)nc3C)C2)cc1C (stereo not drawn),12.6
6,CN1/C(=C\C(=O)c2cccs2)Sc2ccccc21,14.8
7,COc1ccccc1/C=C1\SC(=O)N(CC(=O)N(C)C2CCS(=O)(=O)C2)C1=O (stereo not drawn),11.5
8,CC(=O)Oc1ccc(N2C(=O)C3C(C2=O)C2(C)C=CC3(C)O2)cc1 (stereo not drawn),-18.5
9,COc1cc(CNC23CC4CC(CC(C4)C2)C3)ccc1OCc1ccccc1.Cl,-64
10,Cc1cccc(NC(=O)Cn2cnc3c(oc4ccccc43)c2=O)c1,12.5
11,CCOc1ccccc1NC(=O)c1nnn(CC(=O)Nc2ccc3c(c2)OCO3)c1N,14.2
12,COc1ccccc1S(=O)(=O)Cc1ccc(C(=O)NCc2ccco2)o1,-33.5
13,Cc1cccnc1NC(=O)c1ccc2c(c1)NC(=O)C(C)S2 (stereo not drawn),-13.2
14,CC1c2[nH]c3ccccc3c2CCN1C(=O)Nc1ccccc1 (stereo not drawn),-14.7
15,CC(/C=N/n1c(-c2ccco2)n[nH]c1=S)=C\c1ccco1,1.57
16,CC1=NN(c2ccccc2)C(=O)/C1=C/c1ccc[nH]1,-7.74
17,Fc1ccc(F)c(C2=NNC(=NCC3CCCO3)SC2)c1 (stereo not drawn),14
18,O=C(Nc1ccc(OC(F)(F)F)cc1)c1[nH]ncc1[N+](=O)[O-],-0.846
19,CC(C)c1ccc2[nH]c(O)c(N=NC(=O)c3cccc(S(=O)(=O)N4CCCCC4)c3)c2c1,0.517
20,COc1ccccc1NS(=O)(=O)c1ccc(-c2cnc(C3CC3)o2)cc1,10.7
21,CCOc1ccc(/C=c2\sc3nc(-c4ccco4)nn3c2=O)cc1OCC,8.31
22,CCOC(=O)C1=NNC(C(=O)c2ccc(Cl)cc2)C1c1ccccc1 (stereo not drawn),-23.9
23,C=CCNC(=O)c1c(Cl)nc(C)c([N+](=O)[O-])c1C,-2.88

row,SMILES,"hERG current change (%, negative = inhibition) at 10uM [%]"
1,COCCCNC(=O)C1CCC(=O)N1Cc1ccccc1Cl (stereo not drawn),14.6
2,CCN(C(=O)CCNC(=O)Cn1cnc2ccccc2c1=O)c1ccccc1F,20.1
3,COc1cccc(CNC(=O)CCC2CCCN(C(=O)CCc3c(C)noc3C)C2)c1 (stereo not drawn),-2.56
4,COc1ccc(N2CCN(C(c3ccc4ncccc4c3)c3nnnn3C(C)(C)C)CC2)cc1 (stereo not drawn),-52.1
5,CC(=O)N/C(=N/c1nc(C)cc(C)n1)Nc1ccc(F)cc1F,17
6,CCOC(=O)C1CCCN(C(=O)c2ccc(CNc3c(N4CCC(C)CC4)c(=O)c3=O)cc2)C1 (stereo not drawn),5.83
7,C=C1CCN(c2ccc(C(=O)NCc3ccc(C)cc3)cc2[N+](=O)[O-])CC1,18.1
8,CCOc1ccc(Nc2ccnc3cc(Cl)ccc23)cc1,-7.97
9,O=C1NCC(O)=C1C=Nc1ccccc1O,4.22
10,CCCCNC1=NCCS1,3.28
11,CC(Oc1ccc2c(-c3ccccc3)cc(=O)oc2c1)C(=O)NCC1CCC(C(=O)O)CC1 (stereo not drawn),7.57
12,CCN(c1ccccc1)S(=O)(=O)c1ccc(Cl)c(NC(=O)CN2CCCCCC2)c1.O=C(O)C(=O)O,10.1
13,COc1ccc(/C=C2\SC(N3CCc4ccccc4C3)=NC2=O)cc1,-9.33
14,CCSCCNC(=O)c1cncc(Br)c1,6.27
15,CC1=C(C(=O)N2CCC3(CC2)OCCO3)C2(CCC(C)CC2)OC1=O (stereo not drawn),-6.74
16,COC(=O)NC1c2ccccc2Oc2ccc(C)cc21 (stereo not drawn),10.9
17,CC1=C(C(=O)Nc2ccccc2)C2(CCCCC2)C(C#N)=C(SCC(N)=O)N1,10.7
18,O=C1CCCC2=C1C(c1ccc(O)c(O)c1)Nc1ccc3ccccc3c12 (stereo not drawn),3.82
19,COc1cc(C(=S)N2CCCC2)ccc1OCC(N)=O,17.8
20,CN1CC(=O)N/C1=N\C(=O)Nc1ccc(O)cc1,19.7
21,CC(=O)c1cccc(NC(=O)CN2C(=O)C(=O)N(Cc3ccco3)C2=O)c1,4.82
